# According to PubChem BioAssay AID1030 (National Center for Advancing Translational Sciences (NCATS), 2008):
# Screen size: about 220,000 compounds; about 16,000 (7.3%) were called active. This list was built around the results that the source calls inconclusive (neither active nor inactive); the mix of calls is not that of the screen. Calls follow the shape of the dose curve; as a rule, active = well fitted inhibition curve with a large enough effect (not every such curve was filed as active); inconclusive = small, poorly fitted or top-dose-only effect, or another doubt; inactive = no such curve, though single readings can be large or run the other way. Potencies of inconclusive entries are left out as doubtful fits.
# Target: Aldehyde dehydrogenase 1A1 (Homo sapiens) (UniProt P00352)
# UniProt P00352, sequence (P00352 whole entry, looked up): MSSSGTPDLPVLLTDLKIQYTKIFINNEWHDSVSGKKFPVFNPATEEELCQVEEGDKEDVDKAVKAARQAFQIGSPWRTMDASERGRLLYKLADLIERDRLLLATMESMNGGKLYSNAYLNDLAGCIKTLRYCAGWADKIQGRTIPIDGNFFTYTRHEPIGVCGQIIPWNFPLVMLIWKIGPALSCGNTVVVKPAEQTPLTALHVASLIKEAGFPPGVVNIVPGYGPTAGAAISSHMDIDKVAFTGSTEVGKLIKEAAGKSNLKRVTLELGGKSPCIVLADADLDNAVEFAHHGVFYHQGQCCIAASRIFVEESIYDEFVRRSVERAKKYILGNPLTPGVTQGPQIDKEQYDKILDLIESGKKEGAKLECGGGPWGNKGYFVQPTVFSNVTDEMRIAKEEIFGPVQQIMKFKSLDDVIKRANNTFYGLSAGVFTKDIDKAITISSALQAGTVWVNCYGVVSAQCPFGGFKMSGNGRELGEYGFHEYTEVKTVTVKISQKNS
# Test: qHTS Assay for Inhibitors of Aldehyde Dehydrogenase 1 (ALDH1A1);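 as to activity, negative = inhibition: plate controls were no enzyme wells and a reference inhibitor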
# Settings: Purified ALDH1A1, NADH fluorescence, propionaldehyde substrate; series mostly up to 75.3 µM; activity, negative = inhibition: at the top concentration
# Potency is read from the fitted curve at half-maximal effect; tags tell the direction and shape of the fitted curve.
SMILES,Potency,"activity, negative = inhibition"
COc1ccc(/C=C/C(=O)c2cc3cccc(OC)c3oc2=O)cc1,"inconclusive [inhibitor, partial curve]",–
COc1ccc(CNC(=O)COc2ccc(C)nc2[N+](=O)[O-])cc1,"inconclusive [inhibitor, single point]",–
CCCCCCc1cc2cc(S(=O)(=O)c3ccc(F)cc3)c(=O)oc2cc1O,"inconclusive [inhibitor, single point]",–
CCOC(=O)Cc1csc(NS(=O)(=O)c2ccc3ccccc3c2)n1,"inconclusive [inhibitor, single point]",–
CCN(CC)Cc1c[nH]c2c(C(=O)OC)cccc12,"inconclusive [inhibitor, partial curve]",–
CCC(=O)c1ccc(N2CCN(C(=O)c3cc([N+](=O)[O-])ccc3N3CCN(C)CC3)CC2)c(F)c1,"inconclusive [inhibitor, partial curve]",–
COc1cc(NC(=O)c2cc(Cl)nnc2Cl)cc(OC)c1OC,"inconclusive [inhibitor, single point]",–
Cn1c(-c2ccccc2)c(C=O)c2ccccc21,"inconclusive [inhibitor, partial curve, poor fit]",–
COC(=O)c1[nH]c2ccc(C)cc2c1NC(=O)C1=COCCO1,"inconclusive [inhibitor, single point]",–
O=c1c2ccccc2[nH]c2ccccc12,"inconclusive [inhibitor, partial curve]",–
CC1CCCC(NC(=O)COC(=O)c2ccc(N(C)C)cc2)C1C (configuration not stated),–,inactive: -8.28%
CCc1nc(Nc2ccc(OC)c(OC)c2)c2nnn(Cc3ccccc3Cl)c2n1,"inconclusive [inhibitor, partial curve]",–
Fc1cccc(Cl)c1Cn1nnc(-c2ccc(N3CCOCC3)cc2)n1,"inconclusive [inhibitor, single point]",–
COc1ccc(S(=O)(=O)N2CC=C(C(=O)Nc3ccc(NC(C)=O)cc3)CC2)cc1,–,inactive: 5.77%
COC(=O)c1ccc(CSc2cc(C)c3cccc(C)c3n2)o1,"inconclusive [inhibitor, partial curve]",–
COc1ccc(C2C(C#N)=C(N)SC(N)=C2C#N)cc1OC,active: 28.2 µM,–
Nc1nc(CN2CCN(c3ccccc3F)CC2)nc(Nc2ccc3c(c2)OCCO3)n1,"inconclusive [inhibitor, single point]",–
Cc1cc([N+](=O)[O-])nn1Cc1ccc(C(=O)N/N=C/c2ccc(O)cc2O)cc1,"inconclusive [inhibitor, single point]",–
CC1CCCCC12NC(=S)N(c1ccccc1)N2 (configuration not stated),active: 14.1 µM,–
CSc1ccc(C(=S)N2CCN(Cc3ccccc3)CC2)cc1,active: 2.24 µM,–
CN1CCN2c3ccccc3Cc3ccccc3C2C1 (configuration not stated),inactive,–
CCCC(=O)Nc1ccc(C(=O)NNC(=O)c2ccccc2Br)cc1,"inconclusive [inhibitor, single point]",–
Cc1ccc(S(=O)(=O)N2CCOCC2)cc1NC(=O)CNCC1CCCCC1,"inconclusive [inhibitor, single point]",–
CCOC(=O)C1(CCCc2ccccc2)CCN(C(=O)[C@@H]2C[C@@H](C)NC(=S)N2)CC1,"inconclusive [inhibitor, partial curve]",–

SMILES,Potency,"activity, negative = inhibition"
COC(=O)c1ccc(-n2nnnc2SC)cc1,active: 28.2 µM,–
O=C1c2ccccc2C(O)N1Cc1ccc2c(c1)OCO2 (configuration not stated),–,inactive: 3.67%
CN(C)c1ccc(CNC23CN4CN(CN(C4)C2)C3)cc1,"inconclusive [inhibitor, single point]",–
C=CCNC(=O)c1onc(CSc2cccc3ccccc23)c1C(=O)O,–,inactive: 1.92%
Cc1cc(/C=C2/NC(=O)NC2=O)c(C)n1-c1ccc(C#N)cc1,"inconclusive [inhibitor, partial curve]",–
CCOC(=O)C1CCCN(c2nc3c(C)cccn3c(=O)c2/C=C(\C#N)C(=O)NCc2ccco2)C1 (configuration not stated),"inconclusive [inhibitor, single point]",–
Cc1ccc(C2=NN(C(=O)CCl)C(c3cccs3)C2)o1 (configuration not stated),active: 1.26 µM,–
CC(C)N1C(=O)/C(=C/c2nc3ccccc3c(=O)n2-c2ccccc2)c2ccccc21,"inconclusive [inhibitor, single point]",–
Cn1c(N)c(C(=O)COC(=O)CC(NC(=O)c2ccccc2Cl)c2ccccc2)c(=O)n(C)c1=O (configuration not stated),"inconclusive [inhibitor, single point]",–
O=[N+]([O-])c1ccccc1N/N=C/c1cc2ccccc2nc1Cl,"inconclusive [inhibitor, single point]",–
Cc1ccsc1-c1nc(CSCC(=O)NCCN2CCCC2)c(C)o1,"inconclusive [inhibitor, single point]",–
Cc1ccccc1C(=O)O/N=C(\N)c1cccc([N+](=O)[O-])c1,"inconclusive [inhibitor, full curve]",–
CCc1ccc(-n2c(=O)c3c(C)c(C)sc3n(CC(=O)NCC3CCCO3)c2=O)cc1 (configuration not stated),–,inactive: 7.56%
CN(C)C(=O)c1ccc(-c2ccc3ncnc(N4CCC(C(=O)O)CC4)c3c2)cc1,"inconclusive [inhibitor, single point]",–
COc1cccc(C(=O)OC2CCCN(C)C2)c1 (configuration not stated),"inconclusive [inhibitor, single point]",–
O=S(=O)(c1cccs1)N1CCN(CC(O)COc2cccc(Br)c2)CC1 (configuration not stated),active: 20 µM,–
O=C(NCC1CC1)c1ccc(Nc2nc3ccc(Br)cc3[nH]2)cc1,"inconclusive [inhibitor, single point]",–
O=C1NN(c2ccccc2)C(=O)/C1=C\c1ccc(-c2cc([N+](=O)[O-])ccc2O)o1,"inconclusive [inhibitor, partial curve]",–
c1ccc2[nH]c(NN=C3CCCCCC3)nc2c1,"inconclusive [inhibitor, single point]",–
c1cncc(-c2nc(N3CCCCCC3)c3ccccc3n2)c1,active: 1.41 µM,–
COc1ccc(C(=O)NC(=S)Nc2ccc(N3CCOCC3)c(Cl)c2)cc1[N+](=O)[O-],–,inactive: 5.5%
Cc1cccc(NC(=O)c2cnc3n(c2=O)CCS3)c1,"inconclusive [inhibitor, single point]",–
O=C(N/N=C/c1ccc(-c2ccccc2Cl)o1)c1ccccc1,"inconclusive [inhibitor, single point]",–
Cn1c(=S)ccc2ccccc21,active: 25.1 µM,–

SMILES,Potency,"activity, negative = inhibition"
CN(C)/C=C1/Nc2ccccc2C1=O,active: 25.1 µM,–
O=S(=O)(c1cccs1)N1CCCc2ccccc21,–,inactive: 19.5%
CSc1ccc(C2C(C#N)=C(N)Oc3c2ccc(=O)c2c(C)oc(C)c32)cc1 (configuration not stated),"inconclusive [inhibitor, single point]",–
COc1ncnc2c1oc1nc(CC(C)C)c3c(c12)CC(C)(C)OC3,active: 1 µM,–
COc1cc2[nH]c(=S)n(CCCN3CCOCC3)c(=O)c2cc1OC,–,inactive: -3.31%
S=c1[nH]c(-c2ccccc2)cn1/N=C/c1cccs1,"inconclusive [inhibitor, partial curve]",–
CCOC(=O)N1CCN(Cc2nc(N)nc(Nc3ccc(Oc4ccccc4)cc3)n2)CC1,"inconclusive [inhibitor, single point]",–
O=C(O)c1ccc2c(c1)-c1nc3ccccc3n1C2=O,"inconclusive [inhibitor, partial curve]",–
Cc1ccc(-c2ccc(C(=O)NCc3ccc(Cl)cc3)o2)c2ccccc12,"inconclusive [inhibitor, partial curve]",–
COc1ccc(CNC(=O)C/C(C)=N/NC(=O)Cc2ccc(OC)cc2)cc1,–,inactive: 0.224%
C=CCO/N=C/C1C(=O)CC(C)(C)CC1=O,"inconclusive [inhibitor, single point]",–
O=C(c1ccco1)N1CCC[C@@]2(CCN(C(c3ccccc3)c3ccccc3)C2)C1,"inconclusive [inhibitor, single point]",–
O=C(CSc1nncs1)NCCCc1ccccc1,"inconclusive [inhibitor, single point]",–
COc1ccc(C2C(CC(=O)O)=C(Nc3ccccc3)C(=O)N2c2ccccc2)cc1 (configuration not stated),"inconclusive [inhibitor, single point]",–
Cc1cc(Nc2ccc(O)cc2)ccc1N,active: 3.16 µM,–
Cc1cc(OCC(=O)N2CCCC2)cc(C)c1Cl,–,inactive: 26.3%
O=S(=O)(Nc1ccc2c(c1)CCC2)c1cccs1,"inconclusive [inhibitor, single point]",–
CCC(=O)NC(=S)NNC(=O)COc1ccc(Br)cc1,active: 23.8 µM,–
O=C(c1noc2c1CCCC2)N1CCC(CO)(Cc2ccccc2Cl)CC1,"inconclusive [inhibitor, single point]",–
CNc1[nH]ncc1[N+](=O)[O-],–,inactive: 11.1%
O=C(NCc1cccs1)C1CCCN(c2nc3ccccc3o2)C1 (configuration not stated),–,inactive: -6.65%
CCC1OC(=O)C(C)[C@@H](O[C@H]2C[C@@](C)(OC)C(O)C(C)O2)C(C)[C@@H](O[C@@H]2OC(C)CC(N(C)C)C2O)[C@](C)(O)CC(C)/C(=N\OCOCCOC)[C@H](C)C(O)[C@]1(C)O (some centres not stated),–,inactive: -1.17%
COC(=O)c1sccc1NC(=S)Nc1cc(C)ccc1OC,"inconclusive [inhibitor, single point]",–
CCNC(=S)Nc1ccc(OCC)cc1,–,inactive: 3.63%
